Measurements: patent US20190367516A1 (Bayer Pharma Aktiengesellschaft, priority 2015, published 2019)

Molecular target: T1, human M2 receptor (Homo sapiens, UniProt P08172)
T1 sequence (P08172 1-466): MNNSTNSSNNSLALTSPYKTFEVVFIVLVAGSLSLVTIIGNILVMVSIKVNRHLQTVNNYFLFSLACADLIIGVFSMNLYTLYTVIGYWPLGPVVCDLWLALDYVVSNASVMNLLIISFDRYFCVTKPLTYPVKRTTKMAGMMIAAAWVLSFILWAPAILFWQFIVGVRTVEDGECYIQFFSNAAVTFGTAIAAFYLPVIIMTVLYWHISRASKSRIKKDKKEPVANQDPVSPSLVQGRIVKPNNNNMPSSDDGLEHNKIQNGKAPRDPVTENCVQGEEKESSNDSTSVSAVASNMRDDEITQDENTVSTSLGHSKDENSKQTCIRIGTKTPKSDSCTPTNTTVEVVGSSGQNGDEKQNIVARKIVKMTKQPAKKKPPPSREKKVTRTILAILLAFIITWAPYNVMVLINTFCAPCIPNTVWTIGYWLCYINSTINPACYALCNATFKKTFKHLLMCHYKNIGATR
Settings: boosting of the acetylcholine effect at an EC20 acetylcholine concentration; for Emax: read-out: Efficiency, M2-GIRK1/4 activation test; for Efficiency: M2-GIRK1/4 activation test

| Compound | Emax | Efficiency |
| --- | --- | --- |
| CN(C)c1ccc2c(=O)c(C(=O)NC(Cc3ccccc3)C(F)(F)F)cn(-c3ccc(F)cc3F)c2n1 (racemic) [Example 143, rac-1-(2,4-Difluorophenyl)-7-(dimethylamino)-4-oxo-N-(1,1,1-trifluoro-3-phenylpropan-2-yl)-1,4-dihydro-1,8-naphthyridine-3-carboxamide] | 95.5% |  |
| CCC(NC(=O)c1cn(-c2ccc(F)cc2F)c2nc(N3CC(CO)C3)ccc2c1=O)C(F)(F)F (racemic) [Example 26, rac-1-(2,4-Difluorophenyl)-7-[3-(hydroxymethyl)azetidin-1-yl]-4-oxo-N-[1,1,1-trifluorobutan-2-yl]-1,4-dihydro-1,8-naphthyridine-3-carboxamide] | 97% |  |
| O=C(NC(c1cccc(F)c1)C(F)(F)F)c1cn(-c2ccc(F)cc2F)c2nc(N3C[C@@H](O)CC3=O)ccc2c1=O (mixture of isomers) [Example 272, 1-(2,4-Difluorophenyl)-7-[(4S)-4-hydroxy-2-oxopyrrolidin-1-yl]-4-oxo-N-[2,2,2-trifluoro-1-(3-fluorophenyl)ethyl]-1,4-dihydro-1,8-naphthyridine-3-carboxamide] | 98% |  |
| O=C(NC(c1c(F)cccc1F)C(F)(F)F)c1cn(-c2ccc(F)cc2F)c2nc(N3CCC(O)CC3=O)ccc2c1=O (single isomer, unassigned) [Example 256, 1-(2,4-Difluorophenyl)-N-[1-(2,6-difluorophenyl)-2,2,2-trifluoroethyl]-7-[4-hydroxy-2-oxopiperidin-1-yl]-4-oxo-1,4-dihydro-1,8-naphthyridine-3-carboxamide] |  | 95.0% |
| Cc1cccc(C)c1CNC(=O)c1cn(-c2ccc(F)cc2F)c2nc(N(C)C)ccc2c1=O [Example 51, 1-(2,4-Difluorophenyl)-7-(dimethylamino)-N-(2,6-dimethylbenzyl)-4-oxo-1,4-dihydro-1,8-naphthyridine-3-carboxamide] | 95% |  |
| CC(C)CC(NC(=O)c1cn(-c2ccc(F)cc2F)c2nc(N3CC[C@H](F)C3)ccc2c1=O)C(F)(F)F (stereo partly drawn) [Example 65, 1-(2,4-Difluorophenyl)-7-[(3S)-3-fluoropyrrolidin-1-yl]-4-oxo-N-[1,1,1-trifluoro-4-methylpentan-2-yl]-1,4-dihydro-1,8-naphthyridine-3-carboxamide] | 93.7% |  |
| O=C(NC12CC3CC(CC(C3)C1)C2)c1cn(-c2ccc(F)cc2F)c2nc(N3C[C@@H](O)CC3=O)ccc2c1=O [Example 170] | 96.5% |  |
| O=C(NC12CC3CC(CC(C3)C1)C2)c1cn(-c2ccc(F)cc2F)c2nc(N3CC[C@@H](F)C3)ccc2c1=O [Example 72, 1-(2,4-Difluorophenyl)-7-[(3R)-3-fluoropyrrolidin-1-yl]-4-oxo-N-(tricyclo[3.3.1.1^3,7]dec-1-yl)-1,4-dihydro-1,8-naphthyridine-3-carboxamide] | 94% |  |
| CCC(NC(=O)c1cn(-c2ccc(F)cc2F)c2nc(N(C)CCF)ccc2c1=O)C(F)(F)F (racemic) [Example 104, rac-1-(2,4-Difluorophenyl)-7-[(2-fluoroethyl)(methyl)amino]-4-oxo-N-[1,1,1-trifluorobutan-2-yl]-1,4-dihydro-1,8-naphthyridine-3-carboxamide] | 96% |  |
| CC[C@@H](NC(=O)c1cn(-c2ccc(F)cc2F)c2nc(N3CCOC(C(F)F)C3)ccc2c1=O)C(F)(F)F (single isomer, unassigned) [Example 265] |  | 100.0% |
| CC[C@@H](NC(=O)c1cn(-c2ccccc2C(F)(F)F)c2nc(N3C[C@@H](O)CC3=O)ccc2c1=O)C(F)(F)F (single isomer, unassigned) [Example 269] | 98% |  |
| O=C(NC12CC3CC(CC(C3)C1)C2)c1cn(-c2ccc(F)cc2F)c2nc(N3CCCCC3=O)ccc2c1=O [Example 165, 1-(2,4-Difluorophenyl)-4-oxo-7-(2-oxopiperidin-1-yl)-N-(tricyclo[3.3.1.1^3,7]dec-1-yl)-1,4-dihydro-1,8-naphthyridine-3-carboxamide] | 40.5% |  |
| CC[C@@H](NC(=O)c1cn(-c2ccc(F)cc2F)c2nc(N3CC(O)(C(F)(F)F)C3)ccc2c1=O)C(F)(F)F [Example 262, 1-(2,4-Difluorophenyl)-7-[3-hydroxy-3-(trifluoromethyl)azetidin-1-yl]-4-oxo-N-[(2R)-1,1,1-trifluorobutan-2-yl]-1,4-dihydro-1,8-naphthyridine-3-carboxamide] | 89% |  |
| O=C(NC12CC3CC(CC(F)(C3)C1)C2)c1cn(-c2ccc(F)cc2F)c2nc(N3CC[C@H](F)C3)ccc2c1=O [Example 62, 1-(2,4-Difluorophenyl)-7-[(3S,)-3-fluoropyrrolidin-1-yl]-N-(3-fluorotricyclo[3.3.1.1^3,7]dec-1-yl)-4-oxo-1,4-dihydro-1,8-naphthyridine-3-carboxamide] | 95.5% |  |
| CC[C@@H](NC(=O)c1cn(-c2ccc(F)cc2F)c2nc(NCCF)ccc2c1=O)C(F)(F)F [Example 27, 1-(2,4-Difluorophenyl)-7-[(2-fluoroethyl)amino]-4-oxo-N-[(2R)-1,1,1-trifluorobutan-2-yl]-1,4-dihydro-1,8-naphthyridine-3-carboxamide] | 97.7% |  |
| CN(C)c1ccc2c(=O)c(C(=O)NC(C(F)(F)F)C(F)(F)F)cn(-c3ccc(F)cc3F)c2n1 [Example 149, 1-(2,4-Difluorophenyl)-7-(dimethylamino)-N-(1,1,1,3,3,3-hexafluoropropan-2-yl)-4-oxo-1,4-dihydro-1,8-naphthyridine-3-carboxamide] | 100% |  |
| O=C(N[C@@H](C1CC1)C(F)(F)F)c1cn(-c2c(F)cccc2Cl)c2nc(N3C[C@@H](O)[C@H](O)C3)ccc2c1=O [Example 347, 1-(2-Chloro-6-fluorophenyl)-N-[(1 S)-1-cyclopropyl-2,2,2-trifluoroethyl]-7-[(3R,4R)-3,4-dihydroxypyrrolidin-1-yl]-4-oxo-1,4-dihydro-1,8-naphthyridine-3-carboxamide] | 92.5% |  |
| O=C(NC12CC3CC(CC(C3)C1)C2)c1cn(-c2ccc(F)cc2F)c2nc(N3CC(F)CC3=O)ccc2c1=O (centres unmarked) [Example 187, 1-(2,4-Difluorophenyl)-7-[4-fluoro-2-oxopyrrolidin-1-yl]-4-oxo-N-(tricyclo[3.3.1.1^3,7]dec-1-yl)-1,4-dihydro-1,8-naphthyridine-3-carboxamide] | 93.5% |  |

More lines, now with the values ahead:

| Emax | Efficiency | Compound |
| --- | --- | --- |
| 97% |  | CC(C)(CC(F)(F)F)NC(=O)c1cn(-c2c(F)cc(F)cc2Cl)c2nc(N3C[C@@H](O)[C@H](O)C3)ccc2c1=O [Example 391, 1-(2-Chloro-4,6-difluorophenyl)-7-[(3R,4R)-3,4-dihydroxypyrrolidin-1-yl]-4-oxo-N-(4,4,4-trifluoro-2-methylbutan-2-yl)-1,4-dihydro-1,8-naphthyridine-3-carboxamide] |
| 78% |  | O=C(NCC(F)(F)F)c1cn(-c2ccc(F)cc2F)c2nc(N3CC[C@H](F)C3)ccc2c1=O [Example 67, 1-(2,4-Difluorophenyl)-7-[(3S)-3-fluoropyrrolidin-1-yl]-4-oxo-N-(2,2,2-trifluoroethyl)-1,4-dihydro-1,8-naphthyridine-3-carboxamide] |
|  | 86.0% | C[C@H](NC(=O)c1cn(-c2c(F)cc(F)cc2F)c2nc(N3CC4CC4(O)C3)ccc2c1=O)C(F)(F)F (single isomer, unassigned) [Example 318] |
| 58.5% |  | CC[C@@H](NC(=O)c1cn(-c2ccc(F)cc2F)c2nc(N3CCN(C)C3=O)ccc2c1=O)C(F)(F)F [Example 321, 1-(2,4-Difluorophenyl)-7-(3-methyl-2-oxoimidazolidin-1-yl)-4-oxo-N-[(2R)-1,1,1-trifluorobutan-2-yl]-1,4-dihydro-1,8-naphthyridine-3-carboxamide] |
| 97% |  | C[C@H](NC(=O)c1cn(-c2c(F)cc(F)cc2F)c2nc(N3CC4CC4(O)C3)ccc2c1=O)C(F)(F)F (mixture of isomers) [Example 316, 7-[1-Hydroxy-3-azabicyclo[3.1.0]hex-3-yl]-4-oxo-1-(2,4,6-trifluorophenyl)-N-[(2S)-1,1,1-trifluoropropan-2-yl]-1,4-dihydro-1,8-naphthyridine-3-carboxamide] |
| 100% |  | CC(C)(CC(F)(F)F)NC(=O)c1cn(-c2c(F)cc(F)cc2Cl)c2nc(N3CCNC3=O)ccc2c1=O [Example 394, 1-(2-Chloro-4,6-difluorophenyl)-4-oxo-7-(2-oxoimidazolidin-1-yl)-N-(4,4,4-trifluoro-2-methylbutan-2-yl)-1,4-dihydro-1,8-naphthyridine-3-carboxamide] |
| 60% |  | O=C(N[C@@H](C1CC1)C(F)(F)F)c1cn(-c2c(F)cc(F)cc2F)c2nc(N3CCOC3=O)ccc2c1=O [Example 374, N-[(1S)-1-Cyclopropyl-2,2,2-trifluoroethyl]-4-oxo-7-(2-oxo-1,3-oxazolidin-1.3-yl)-1-(2,4,6-trifluorophenyl)-1,4-dihydro-1,8-naphthyridine-3-carboxamide] |
| 95.5% |  | CC[C@H](NC(=O)c1cn(-c2c(F)cccc2F)c2nc(N3CCC(C)(O)C3)ccc2c1=O)C(F)(F)F (stereo partly drawn) [Example 327, 1-(2,6-Difluorophenyl)-7-[3-hydroxy-3-methylpyrrolidin-1-yl]-4-oxo-N-[(2S)-1,1,1-trifluorobutan-2-yl]-1,4-dihydro-1,8-naphthyridine-3-carboxamide] |
